# Reference: PubChem BioAssay (NCATS)
# Inconclusive means that the source gave no clear call. Such entries were picked first, then a sample of the others. For part of these data: No potency is given beside an inconclusive call; the fits are too rough. The source made the active and inactive calls. Unless noted, calls come from the whole dose curve; as a rule, active = well fitted curve in the direction sought with a large enough effect; inconclusive = small, poorly fitted or top-dose-only effect, or another doubt; inactive = no such curve, though single readings can be large; an effect the other way counts as inactive or inconclusive.
# Legend:
# [1] = target: Ubiquitin carboxyl-terminal hydrolase 1 (Homo sapiens) (UniProt O94782); test: Inhibitors of USP1/UAF1: Pilot qHTS (AID 504865); details: purified USP1/UAF1, Ub-rhodamine cleavage fluorescence; series mostly up to 114 µM;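 note: rhodamine fluorescence freed from ubiquitin-rhodamine substrate followed over time; potency is the fitted concentration of half-maximal effect; nearly all actives have a fitted effect of over 35% in size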
# Chain of UniProt O94782 (O94782 whole entry, looked up): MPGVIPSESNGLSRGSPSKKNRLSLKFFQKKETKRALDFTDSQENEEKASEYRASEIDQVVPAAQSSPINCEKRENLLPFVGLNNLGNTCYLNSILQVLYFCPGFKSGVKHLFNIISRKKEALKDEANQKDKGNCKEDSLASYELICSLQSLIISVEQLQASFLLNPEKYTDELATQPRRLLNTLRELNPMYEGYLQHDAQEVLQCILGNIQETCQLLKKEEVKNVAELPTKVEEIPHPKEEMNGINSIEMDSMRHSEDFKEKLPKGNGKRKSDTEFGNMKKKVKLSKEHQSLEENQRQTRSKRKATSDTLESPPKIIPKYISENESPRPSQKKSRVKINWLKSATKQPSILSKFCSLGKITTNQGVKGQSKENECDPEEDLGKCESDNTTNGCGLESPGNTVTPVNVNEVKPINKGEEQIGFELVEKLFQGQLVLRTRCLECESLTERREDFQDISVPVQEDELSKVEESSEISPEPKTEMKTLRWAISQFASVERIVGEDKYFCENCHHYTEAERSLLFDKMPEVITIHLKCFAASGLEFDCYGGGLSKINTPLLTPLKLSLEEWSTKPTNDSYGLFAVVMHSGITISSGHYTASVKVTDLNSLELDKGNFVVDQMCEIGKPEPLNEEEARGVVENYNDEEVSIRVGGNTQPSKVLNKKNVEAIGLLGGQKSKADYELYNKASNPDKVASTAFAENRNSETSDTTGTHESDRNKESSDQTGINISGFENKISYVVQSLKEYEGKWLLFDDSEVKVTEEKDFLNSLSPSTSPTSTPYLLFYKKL
# Procedure, shortened: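 Kinetic fluorescence assay: 1nM USP1/UAF1, 15 min compound preincubation, then 150nM Ub-Rho; 480/540 nm.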
# [2] = Primary qHTS to identify inhibitors of SARS-CoV-2 cell entry (AID 1645846; calls by dose curve; note: potency is the fitted concentration of half-maximal effect; nearly all actives have a fitted effect of over 45% in size); details: SARS-CoV-2 pseudovirus cell entry assay, luminescence; activity change, negative = inhibition: at 57.1 µM (top of the series); series mostly up to 57.1 µM
# Procedure, shortened: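 Data are normalized to wells receiving SARS-CoV-2-S pseudoparticles and those given bald particles. Entry signal was luciferase luminescence in stable hACE2 Expi293F cells, 48 hr post-infection, after 1 hr compound pretreatment.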
# [3] = VSVG counterscreen qHTS to identify inhibitors of SARS-CoV-2 cell entry (AID 1645847; calls by dose curve; note: potency is the fitted concentration of half-maximal effect; nearly all actives have a fitted effect of over 65% in size); details: VSV-G pseudotyped particle entry, luciferase; activity change, negative = inhibition: at 57.2 µM (top of the series)
# Procedure, shortened: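 Counterscreen using VSV-G (not spike) pseudotyped MLV particles on ACE2-expressing Expi293F cells after 1 h compound preincubation; infection ran 48 h at 37 °C. Data normalized to VSV-G PP and bald-PP wells.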
# [4] = target: Rap guanine nucleotide exchange factor 3 (Homo sapiens) (UniProt O95398); test: Confirmatory qHTS for antagonist of cAMP-regulated guanine nucleotide exchange factor 3 (EPAC1) (AID 1645880); details: EPAC1 Rap1B-BODIPY-GDP exchange, fluorescence; series mostly up to 115 µM; note: nearly all actives have a fitted effect of over 55% in size; note: potency is the fitted concentration of half-maximal effect
# Chain of UniProt O95398 (O95398 whole entry, looked up): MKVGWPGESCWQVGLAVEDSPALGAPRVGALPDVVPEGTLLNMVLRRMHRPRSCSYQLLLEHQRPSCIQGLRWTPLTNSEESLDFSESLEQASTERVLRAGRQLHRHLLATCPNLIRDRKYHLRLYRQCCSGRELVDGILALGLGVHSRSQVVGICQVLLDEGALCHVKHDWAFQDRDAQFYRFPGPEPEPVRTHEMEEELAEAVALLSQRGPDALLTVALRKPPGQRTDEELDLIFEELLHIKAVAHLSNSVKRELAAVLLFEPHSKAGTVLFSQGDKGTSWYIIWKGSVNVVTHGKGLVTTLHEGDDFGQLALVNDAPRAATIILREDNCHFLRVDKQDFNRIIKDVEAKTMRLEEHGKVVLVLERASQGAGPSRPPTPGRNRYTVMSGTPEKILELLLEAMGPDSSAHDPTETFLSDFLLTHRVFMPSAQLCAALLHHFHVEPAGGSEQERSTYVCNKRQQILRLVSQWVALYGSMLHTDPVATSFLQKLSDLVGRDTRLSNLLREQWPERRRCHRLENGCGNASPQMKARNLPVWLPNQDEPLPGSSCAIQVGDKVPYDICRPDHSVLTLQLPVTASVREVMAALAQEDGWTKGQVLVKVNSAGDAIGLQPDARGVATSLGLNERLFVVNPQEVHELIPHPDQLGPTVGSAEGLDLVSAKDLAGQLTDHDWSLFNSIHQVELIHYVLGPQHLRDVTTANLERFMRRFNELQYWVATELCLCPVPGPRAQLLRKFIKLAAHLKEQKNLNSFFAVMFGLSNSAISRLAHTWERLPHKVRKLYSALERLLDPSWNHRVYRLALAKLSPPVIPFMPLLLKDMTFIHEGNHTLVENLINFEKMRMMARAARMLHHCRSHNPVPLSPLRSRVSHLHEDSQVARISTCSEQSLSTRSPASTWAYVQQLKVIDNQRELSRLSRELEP
# Procedure, shortened: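 Released BODIPY-GDP fluoresces less than Rap1-bound BODIPY-GDP; the signal is followed at 480/540 nm at 5-min intervals over 30 min, after 5 min at room temperature. Reactions contain 100 nM EPAC1, 250 nM RAP1B-BODIPY-GDP and 50 uM GDP; results are normalized to ATA and DMSO.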
# [5] = target: Rap guanine nucleotide exchange factor 3 (Homo sapiens) (UniProt O95398); test: Confirmatory qHTS for agonist of cAMP-regulated guanine nucleotide exchange factor 3 (EPAC1) (AID 1645881); details: EPAC1 Rap1B BODIPY-GDP exchange fluorescence; activation: at 154 µM (top of the series), 100% = cAMP control response; note: nearly all actives have a fitted effect of over 75% in size; note: potency is the fitted concentration of half-maximal effect;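 for activation: EPAC1 catalysed release of BODIPY-GDP from Rap1B seen as fluorescence loss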
# [6] = target: Rap guanine nucleotide exchange factor 3 (Homo sapiens) (UniProt O95398); test: Counterscreen qHTS for agonist of cAMP-regulated guanine nucleotide exchange factor 3 (EPAC1) (AID 1645889); details: EPAC1 Rap1B-BODIPY-GDP exchange, fluorescence; activation: at 154 µM (top of the series) unless noted; note: nearly all actives have a fitted effect of over 40% in size; note: potency is the fitted concentration of half-maximal effect; for activation: % of control where 0% means no effect
# Procedure, shortened: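 Rap1B-BODIPY-GDP 250 nM + GDP 50 uM; cpds 7-pt, final 9.74 nM–152 uM (activator mode) or from 7.32 nM upwards (inhibitor mode); RT; FI 480/540 nm at 5 and 30 min, then ± cAMP, reread.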
# [7] = Primary qHTS for inhibitors of nuclear receptor binding SET domain protein 2 (NSD2) in an RCH-ACV wild type WT cells (2C) (AID 1645877); details: RCH-ACV NSD2 WT (2C) viability, CellTiter-Glo, 72 h; series mostly up to 44.9 µM; note: nearly all actives have a fitted effect of over 70% in size; note: potency is the fitted concentration of half-maximal effect
# [8] = Primary qHTS for inhibitors of nuclear receptor binding SET domain protein 2 (NSD2) in an isogenic RCH-ACV NSD2 p.E1099K mutant (9B) (AID 1645876); details: RCH-ACV (leukaemia line) NSD2 E1099K (9B) viability, CellTiter-Glo, 72 h; series mostly up to 44.9 µM; note: potency is the fitted concentration of half-maximal effect; nearly all actives have a fitted effect of over 70% in size
# [9] = target: ATPase family AAA domain-containing protein 5 (Homo sapiens) (UniProt Q96QE3); test: HTS assay for small molecules that inhibit ELG1-dependent DNA repair in human embryonic kidney (HEK293T) cells expressing luciferase-tagged ELG1: Hit Confirmation (AID 624248); details: HEK293T ELG1-luciferase levels, luminescence, cells co-treated with 5-fluorouridine; series mostly up to 46.1 µM;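 note: % is set by controls: 0 for no effect and ±100 for the full control effect; actives are inhibitors that lower the ELG1-luciferase luminescence; nearly all actives have a fitted effect of over 55% in size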
# Chain of UniProt Q96QE3 (Q96QE3 whole entry, looked up, the tested form may be a part): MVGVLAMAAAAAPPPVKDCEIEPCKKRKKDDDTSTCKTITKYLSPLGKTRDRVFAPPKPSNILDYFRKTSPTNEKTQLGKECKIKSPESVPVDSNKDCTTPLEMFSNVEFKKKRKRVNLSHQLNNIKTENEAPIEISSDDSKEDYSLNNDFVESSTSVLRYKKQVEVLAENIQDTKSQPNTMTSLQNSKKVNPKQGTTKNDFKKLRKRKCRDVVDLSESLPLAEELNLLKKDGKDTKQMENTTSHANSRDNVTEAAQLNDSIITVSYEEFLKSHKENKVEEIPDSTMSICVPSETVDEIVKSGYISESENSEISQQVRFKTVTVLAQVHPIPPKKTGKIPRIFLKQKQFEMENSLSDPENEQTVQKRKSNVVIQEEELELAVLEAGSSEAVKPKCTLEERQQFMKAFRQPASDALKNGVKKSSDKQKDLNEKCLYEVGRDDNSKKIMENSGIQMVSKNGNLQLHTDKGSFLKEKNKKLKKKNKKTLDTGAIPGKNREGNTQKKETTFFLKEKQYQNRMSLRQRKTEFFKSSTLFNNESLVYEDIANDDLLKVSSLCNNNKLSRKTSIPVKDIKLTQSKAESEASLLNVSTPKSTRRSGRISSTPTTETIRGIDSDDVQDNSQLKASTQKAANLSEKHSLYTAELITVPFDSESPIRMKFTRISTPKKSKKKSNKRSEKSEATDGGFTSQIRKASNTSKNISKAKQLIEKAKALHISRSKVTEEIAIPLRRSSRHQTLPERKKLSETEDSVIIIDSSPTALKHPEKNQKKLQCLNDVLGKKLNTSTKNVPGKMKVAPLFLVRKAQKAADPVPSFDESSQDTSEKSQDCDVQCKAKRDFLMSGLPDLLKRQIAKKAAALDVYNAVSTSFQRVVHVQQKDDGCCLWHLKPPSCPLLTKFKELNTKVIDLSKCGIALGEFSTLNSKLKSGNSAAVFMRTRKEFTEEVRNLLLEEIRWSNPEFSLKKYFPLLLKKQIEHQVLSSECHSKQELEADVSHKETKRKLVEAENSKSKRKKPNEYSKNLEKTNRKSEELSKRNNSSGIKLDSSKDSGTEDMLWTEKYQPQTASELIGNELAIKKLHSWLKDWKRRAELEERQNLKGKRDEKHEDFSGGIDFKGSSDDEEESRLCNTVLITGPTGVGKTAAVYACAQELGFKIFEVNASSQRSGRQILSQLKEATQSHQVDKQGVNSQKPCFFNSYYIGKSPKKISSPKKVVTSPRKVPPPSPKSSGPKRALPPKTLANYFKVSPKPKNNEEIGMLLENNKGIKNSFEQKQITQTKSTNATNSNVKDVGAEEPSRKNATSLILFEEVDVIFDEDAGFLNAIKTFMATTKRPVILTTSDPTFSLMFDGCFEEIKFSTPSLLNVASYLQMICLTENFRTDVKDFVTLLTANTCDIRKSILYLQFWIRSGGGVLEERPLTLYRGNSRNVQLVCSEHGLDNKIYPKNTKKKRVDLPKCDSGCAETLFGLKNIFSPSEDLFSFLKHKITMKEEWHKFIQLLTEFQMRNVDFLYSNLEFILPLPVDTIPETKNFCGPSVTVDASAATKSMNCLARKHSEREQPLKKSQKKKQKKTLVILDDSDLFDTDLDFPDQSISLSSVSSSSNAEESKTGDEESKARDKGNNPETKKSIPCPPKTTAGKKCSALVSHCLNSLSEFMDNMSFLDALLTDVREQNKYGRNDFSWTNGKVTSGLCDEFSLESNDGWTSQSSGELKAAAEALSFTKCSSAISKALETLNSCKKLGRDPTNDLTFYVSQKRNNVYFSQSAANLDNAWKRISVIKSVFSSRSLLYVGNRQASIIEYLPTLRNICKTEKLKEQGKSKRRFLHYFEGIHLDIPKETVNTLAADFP
# Procedure, shortened: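 Suppression of ELG1-luciferase signal was read by ONE-Glo luminescence in HEK293T reporter cells after 16 h at 37 C co-treatment with compound and 5-fluorouridine as DNA-damaging agent.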
# [10] = qHTS screen for small molecules that inhibit ELG1-dependent DNA repair: Hit Confirmation with MMS Viability (AID 624251); details: Cell viability with MMS;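 note: potency is the fitted concentration of half-maximal effect; viability read 16 h after compound addition; nearly all actives have a fitted effect of over 60% in size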
# Procedure, shortened: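 MMS (final 10 µM) was co-dosed with compounds onto HEK293T cells carrying the ELG1-luc reporter; cell viability was quantified by CellTiter-Glo at 16 h.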
# [11] = target: Luciferin 4-monooxygenase (Photinus pyralis) (UniProt P08659); test: qHTS screen for small molecules that inhibit ELG1-dependent DNA repair: Hit Confirmation in Biochemical Luciferin Assay (AID 624253); details: purified firefly luciferase, luminescence counter-screen; series mostly up to 57.5 µM; note: % is set by controls: 0 for no effect and ±100 for the full control effect
# Procedure, shortened: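 Cell-free hit confirmation using firefly luciferase; light output measured by CCD imaging.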
# [12] = target: Rap guanine nucleotide exchange factor 4 (Homo sapiens) (UniProt Q8WZA2); test: Confirmatory qHTS for antagonist of cAMP-regulated guanine nucleotide exchange factor 4 (EPAC2) (AID 1645885); details: EPAC2 Rap1B-BODIPY-GDP exchange fluorescence, biochemical; activity change, negative = inhibition: at 114 µM (top of the series) unless noted; series mostly up to 114 µM; note: potency is the fitted concentration of half-maximal effect; nearly all actives have a fitted effect of over 25% in size
# Chain of UniProt Q8WZA2 (Q8WZA2 whole entry, looked up): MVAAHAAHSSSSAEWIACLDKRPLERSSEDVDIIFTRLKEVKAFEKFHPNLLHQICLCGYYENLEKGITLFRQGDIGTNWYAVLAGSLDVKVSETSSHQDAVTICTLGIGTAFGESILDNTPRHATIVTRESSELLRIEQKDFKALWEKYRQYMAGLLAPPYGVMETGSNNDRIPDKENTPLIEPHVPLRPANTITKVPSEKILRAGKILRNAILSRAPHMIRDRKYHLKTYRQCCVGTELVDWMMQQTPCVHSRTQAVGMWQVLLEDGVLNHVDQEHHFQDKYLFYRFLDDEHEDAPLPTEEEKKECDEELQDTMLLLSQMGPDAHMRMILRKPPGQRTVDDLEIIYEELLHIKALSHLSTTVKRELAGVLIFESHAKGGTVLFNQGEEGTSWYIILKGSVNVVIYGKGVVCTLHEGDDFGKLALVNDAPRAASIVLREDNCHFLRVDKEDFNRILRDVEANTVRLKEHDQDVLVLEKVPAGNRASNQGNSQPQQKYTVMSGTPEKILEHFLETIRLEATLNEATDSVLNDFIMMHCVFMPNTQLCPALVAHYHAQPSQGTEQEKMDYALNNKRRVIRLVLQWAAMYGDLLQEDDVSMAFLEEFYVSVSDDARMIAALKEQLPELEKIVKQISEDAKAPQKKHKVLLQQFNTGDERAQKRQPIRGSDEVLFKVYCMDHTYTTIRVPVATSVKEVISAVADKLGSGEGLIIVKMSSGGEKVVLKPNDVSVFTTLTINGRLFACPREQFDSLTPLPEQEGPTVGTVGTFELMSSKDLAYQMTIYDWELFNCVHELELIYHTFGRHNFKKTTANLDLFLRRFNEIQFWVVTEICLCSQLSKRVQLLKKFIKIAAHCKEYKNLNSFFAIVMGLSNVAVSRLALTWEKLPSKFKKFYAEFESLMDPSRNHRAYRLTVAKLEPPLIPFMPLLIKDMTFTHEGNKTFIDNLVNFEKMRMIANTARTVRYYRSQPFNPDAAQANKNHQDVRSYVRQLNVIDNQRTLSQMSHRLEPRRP
# Tags give direction and shape of the fitted curve.
smiles,measurement,setting,value
CN1c2cc(O)c(N=NC(N)=O)cc2CC1S(=O)(=O)O (centres undefined),Potency,[1],"inconclusive [inhibitor, partial curve, poor fit]"
same,Potency,[2],"inconclusive [inhibitor, full curve, poor fit]"
C[C@@]1(c2ncncc2F)NC(=O)c2cc(-c3cn[nH]c3)ccc21,Potency,[2],"inconclusive [inhibitor, full curve, poor fit]"
CC#CC(=O)N1CC[C@@H](n2c(=O)n(-c3ccc(Oc4ccccc4)cc3)c3c(N)ncnc32)C1,Potency,[3],"inconclusive [inhibitor, partial curve, poor fit]"
COc1ccc(-n2nnnc2C(c2ccccc2OC(F)(F)F)N2CCC(n3c(=O)[nH]c4ccccc43)CC2)cc1 (centres undefined),Potency,[4],"inconclusive [inhibitor, partial curve, poor fit]"
COC(=O)C1=C(c2cc3ccccc3s2)C[C@@H]2CC[C@H]1N2C(=O)NCc1ccc(C(F)(F)F)cc1,Potency,[4],inactive
Cc1cccc(CN2C(=O)CN=C(c3ccccc3)c3cc(Cl)ccc32)c1,Potency,[4],"inconclusive [inhibitor, partial curve, poor fit]"
same,Potency,[5],"inconclusive [activator, partial curve, poor fit]"
same,Potency,[6],"inconclusive [activator, partial curve, poor fit]"
CCC(C)c1ccc(N2C(=O)NC(=O)/C(=C/c3cccn3CCOc3ccc(C)cc3)C2=O)cc1 (centres undefined),Potency,[4],"inconclusive [inhibitor, full curve, poor fit]"
Cc1cccc(-c2nc(CN3C(=O)CN=C(c4ccccc4)c4ccccc43)c(C)o2)c1,Potency,[4],"inconclusive [inhibitor, partial curve, poor fit]"
CC(C)C1(OO)C=C2C(=O)CC3C(C)(C(=O)O)CCCC3(C)C2CC1 (centres undefined),Potency,[7],inactive
Cc1ccc(N2C(=O)NC(=O)/C(=C\C=C\c3ccco3)C2=O)cc1C,Potency,[4],active: 33.8 µM
O=C(CBr)N1CC([N+](=O)[O-])([N+](=O)[O-])C1,Potency,[8],"inconclusive [inhibitor, single point]"
same,Potency,[7],"inconclusive [inhibitor, single point]"
O=C1CN=C(c2ccccc2)c2cc(Cl)ccc2N1Cc1ccc(Cl)cc1,Potency,[4],inactive
same,Potency,[5],"inconclusive [activator, partial curve, poor fit]"
same,Potency,[6],"inconclusive [activator, partial curve, poor fit]"
FC(F)(F)c1cccc(C2NCc3ccccc3-n3cccc32)c1 (centres undefined),Potency,[4],"inconclusive [inhibitor, partial curve, poor fit]"
same,Potency,[5],"inconclusive [activator, partial curve, poor fit]"
c1ccc(C(c2ccccc2)c2cccnc2)cc1,Potency,[4],"inconclusive [inhibitor, partial curve, poor fit]"
CCCCCC1C(=O)O[C@H](C)[C@@H](NC(=O)c2cccc(NC=O)c2O)C(=O)OC(C)C1OC(=O)CC(C)C (some centres undefined),Potency,[1],"inconclusive [inhibitor, partial curve]"
same,Potency,[9],inactive
same,Potency,[10],active: 0.0141 µM
same,Potency,[11],inactive
same,Potency,[4],inactive
same,Potency,[5],inactive
same,Potency,[12],"inconclusive [inhibitor, single point]"
Cc1ccccc1OCC(=O)N1CCN(CCc2ccccn2)CC1,Potency,[4],inactive
same,Potency,[5],"inconclusive [activator, single point]"
COC(=O)c1cn(Cc2ccc(F)cc2)c2ccccc12,Potency,[4],inactive
COc1cc(-n2c(=S)[nH]c3ccc(C)cc3c2=O)c(Cl)cc1Cl,Potency,[4],"inconclusive [inhibitor, partial curve]"
COP(=O)(/C=C(\Cl)c1ccccc1)/C=C(\Cl)c1ccccc1,Potency,[4],"inconclusive [inhibitor, partial curve]"
same,Potency,[5],inactive
same,Potency,[6],inactive
O=C1NC(=O)N(CCc2ccc(F)cc2)C(=O)/C1=C/c1ccco1,Potency,[4],"inconclusive [inhibitor, partial curve]"
CCC(=NCCCO)c1c(O)n(-c2ccc(OC)cc2)c(=O)[nH]c1=O,Potency,[4],inactive
O=c1[nH]c(=O)n(-c2cccc(F)c2)c(O)c1/C=C1\C=Nc2ccccc21,Potency,[4],inactive
same,activation,[5],inconclusive: -0.788% [activator]
